Reference: publication PMC5088048 (Structure (London, England : 1993), 2016)

Biological target: T1, KDM2B Fbox-LRR region (residues 1059–1336) (UniProt Q8NHM5 1059-1336)
T1 sequence (looked up): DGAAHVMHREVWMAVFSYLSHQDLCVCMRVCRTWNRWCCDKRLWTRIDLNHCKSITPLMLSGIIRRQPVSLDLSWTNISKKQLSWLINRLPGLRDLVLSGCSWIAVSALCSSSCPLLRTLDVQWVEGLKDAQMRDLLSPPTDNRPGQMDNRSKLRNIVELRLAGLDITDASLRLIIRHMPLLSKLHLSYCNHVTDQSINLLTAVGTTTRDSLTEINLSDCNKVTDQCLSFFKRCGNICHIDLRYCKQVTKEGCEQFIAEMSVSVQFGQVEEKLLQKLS
Assay: AUC

stoichiometry N: 1
B1: SKP1 ([…]) (natural protein)
chain: not shown
